Test results from paper PMC6919601, “Identification of Plasmodium dipeptidyl aminopeptidase allosteric inhibitors by high throughput screening” (PLoS ONE, 2019).
About 230 (0.21%) of roughly 110,000 compounds showed an effect of 50% or more. The list shows a part of the results.

target: DPAP1 (Plasmodium falciparum, UniProt Q8IIJ9); assay: primary screen, percent inhibition; read by cleavage of a fluorogenic dipeptide substrate; higher = more effect of the substance; set-up: species or system P. falciparum D10 trophozoite lysates; single well
Sequence (Q8IIJ9 whole entry, looked up): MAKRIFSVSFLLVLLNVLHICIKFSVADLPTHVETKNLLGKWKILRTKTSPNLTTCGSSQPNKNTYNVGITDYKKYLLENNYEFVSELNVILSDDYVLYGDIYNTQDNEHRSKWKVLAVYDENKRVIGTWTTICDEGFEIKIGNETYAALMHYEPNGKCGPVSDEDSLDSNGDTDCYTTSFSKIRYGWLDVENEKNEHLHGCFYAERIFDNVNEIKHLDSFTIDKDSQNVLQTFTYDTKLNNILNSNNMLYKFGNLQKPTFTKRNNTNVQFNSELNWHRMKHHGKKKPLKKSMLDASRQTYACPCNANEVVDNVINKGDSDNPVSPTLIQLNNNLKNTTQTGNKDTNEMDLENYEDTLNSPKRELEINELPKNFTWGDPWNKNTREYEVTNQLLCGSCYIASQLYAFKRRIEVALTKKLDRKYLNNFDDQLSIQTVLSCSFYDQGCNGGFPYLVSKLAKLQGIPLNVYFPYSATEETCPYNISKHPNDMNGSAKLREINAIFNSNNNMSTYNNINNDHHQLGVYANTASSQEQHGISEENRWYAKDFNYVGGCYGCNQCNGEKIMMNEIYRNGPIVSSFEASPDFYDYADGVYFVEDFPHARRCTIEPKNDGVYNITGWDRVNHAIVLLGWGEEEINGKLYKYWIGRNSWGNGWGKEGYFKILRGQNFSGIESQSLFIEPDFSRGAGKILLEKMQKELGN
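Note: 30 min substrate incubation versus DMSO and 10 µM JCP410 controls.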

Point of comparison: `COc1ccccc1N1CCN(C(=O)C(C)N(c2ccccc2)S(C)(=O)=O)CC1` (stereo not drawn), “% Inhibition @ 10 uM” value 3.29%. Against it:
- O=C(O)c1ccc2c(c1)C(=O)N(c1ccc3c(c1)C(=O)N(c1ccccc1)C3=O)C2=O — higher, 7.77%
- CC(C)Oc1ccc(-c2cc(C(=O)N3CCN(C)CC3)c3ccccc3n2)cc1 — lower, -7.61%
- Cc1ccc(C)n1-c1sc2c(c1C#N)CCCC2 — lower, 3.05%
- O=C(NCc1ccccc1)c1ccc(C(=O)NCc2ccccc2)cc1 — lower, -1.8%
- Nc1ccc(-c2csc(N)n2)cc1 — lower, -1.5%
- Cn1c(=O)c2c(ncn2Cc2ccccc2C#N)n(C)c1=O — lower, 0.755%
- CC(=O)Nc1ccc(N2C(=O)C3C4C=CC(C4)C3C2=O)cc1 (stereo not drawn) — lower, 1.64%
- Cc1ccc(C(=O)N2CCN(CCNC(=O)C(=O)NC(C)C)CC2)cc1 — higher, 3.59%
- Cc1c[nH]nc1/N=C/C1=C(O)c2ccccc2C1=O — lower, -2.78%
- Cc1ccc(OC(=S)Nc2ccc(O)cc2)cc1 — lower, -2.84%
- COc1cccc2sc(NC(=O)c3ccccc3Oc3ccccc3)nc12 — higher, 7.49%
- N#CCNC(=O)C1(NC(=O)c2ccc(-c3ccccc3Cl)cc2)CCCCCCC1 — lower, 0.079%
- Cc1ccc(CCNC(=O)c2coc3nc4ccccc4nc23)cc1 — lower, -4.53%
- Cc1ccc(OCCNC(=O)c2cccc3ccccc23)cc1 — lower, -3.45%
- COc1cc(/C=C2\SC(=O)N(C)C2=O)ccc1OCC(=O)O — lower, -3.06%
- Cn1ccc(=O)c2c(-c3ccccc3)nc3nonc3c21 — lower, -3.27%
- COc1ccc(-c2nc(SCC(=O)Nc3nccs3)c(-c3ccc(C)cc3)[nH]2)cc1OC — lower, 1.85%
- COc1ccc(/C=C/C(=O)N2CCN(c3ccc(N4CCOCC4)nn3)CC2)cc1OC — lower, -3.45%
- COc1cccc(Nc2nc(-c3ccc(C)c(C)c3)cs2)c1 — higher, 3.61%
- COc1ccc(CCNC(=O)C(C)n2nc(C)c3c(C)n(-c4ccc(C)cc4)nc3c2=O)c(OC)c1 (stereo not drawn) — lower, -3.43%
- O=C(C1=C(O)C(=O)N(c2ccccn2)C1c1ccccc1Cl)c1ccccc1 (stereo not drawn) — higher, 3.91%
- CC(=O)Nc1sc2c(c1C(N)=O)CCC(C)C2 (stereo not drawn) — higher, 4.61%
- Cn1c(=O)c2c(ncn2CCCOC2c3ccccc3CCc3ccccc32)n(C)c1=O — lower, 0.189%
- CC1CC(C)CN(S(=O)(=O)N2CCCC(C(=O)NCCc3ccc(Cl)cc3)C2)C1 (stereo not drawn) — higher, 3.79%
- Cc1cc(=O)n2nc(N3CCC(C(=O)NCCC4=CCCCC4)CC3)sc2n1 — lower, -2%
- O=C(Nc1ncccc1O)C12CC3CC(CC(C3)C1)C2 — lower, 2.94%
- O=C1CC(Cc2ccc(Cl)cc2)C(=O)N1Cc1ccccc1 (stereo not drawn) — lower, -3.06%
- COc1ccc(C2(C#N)CCC(O)CC2)cc1OC (stereo not drawn) — lower, 2.4%
- Cc1ccc(S(=O)(=O)NCC2CCC(C(=O)NCc3ccccc3)CC2)cc1 (stereo not drawn) — lower, 0.718%
- O=C(CSc1nc2ccccc2[nH]1)NC1CCCCC1 — lower, -4.43%
- Cc1ccc(-c2cn3nc(N4CCCC(C(=O)O)C4)sc3n2)cc1 (stereo not drawn) — lower, 0.0882%
- O=C(NC1CCCCC1)c1cccc(Cn2cc(Cl)cn2)c1 — lower, 2.08%
- O=C(Nc1c(C(=O)N2CCN(C(=O)c3ccco3)CC2)oc2ccccc12)c1ccco1 — lower, -2.72%
- CCCS(=O)(=O)c1oc(-c2ccc(F)cc2)nc1S(=O)(=O)c1ccccc1 — lower, 2.14%
- CCOc1cc([N+](=O)[O-])c2[nH]c3c(c2c1)CCNC3=O — lower, 1.87%
- Cc1ccc(C(C(=O)NC2CCCC2)N2CCC3(CC2)OCCO3)cc1 (stereo not drawn) — lower, 2.84%
- COc1ccc(OCC(=O)Nc2ccc(S(=O)(=O)N3CCc4ccccc43)cc2)cc1 — higher, 10%
- COC(=O)c1ccc(Cn2cnc3c(cnn3-c3ccc(Cl)cc3)c2=O)o1 — lower, -1.75%
- COc1cc(/C=C2/C(=N)N3N=C(C4CCCCC4)SC3=NC2=O)cc(OC)c1OC — lower, -3.4%
- CSc1nc(C)c(C)c(O)n1 — lower, 1.25%
- CCn1c(C)nc2cc(S(=O)(=O)N(C)C)ccc21 — lower, -0.128%
- COc1ccc2oc(=O)cc(CN(C)CCC#N)c2c1 — lower, 1.67%
- O=C(NC1C=CS(=O)(=O)C1)c1ccccc1SCc1ccc(F)cc1 (stereo not drawn) — lower, 1.32%
- O=C(O)c1nn2c(C(F)(F)F)cc(-c3ccccc3)nc2c1Br — lower, 0.247%
- N#C/C(=C\c1ccccc1O)c1nc(O)c2ccccc2n1 — lower, -2.87%
- O=C1CC(C(=O)Nc2ccc(Br)cc2)C(c2ccccc2)O1 (stereo not drawn) — higher, 3.98%
- Cc1nc2nc(N)nn2c(O)c1Cc1ccccc1 — lower, 0.795%
- O=C(NC1(C(F)(F)F)N=C(c2ccccc2)NC1=O)c1ccccc1F (stereo not drawn) — lower, -5.4%
- COc1cc(NC(=O)c2ccco2)ccc1NC(=O)c1ccco1 — lower, -0.511%
- Cc1cc(Nc2ccccc2)nc(N)n1 — lower, -2.6%
- COc1ccc(C2C(C#N)=C(SCC(=O)Nc3ccc(F)cc3)N=C3CC(C)(C)CC(O)=C32)cc1 (stereo not drawn) — lower, -4.65%
- O=S(=O)(Nc1cc(Cl)c(Cl)cc1Cl)c1ccc(Cl)cc1 — higher, 3.85%
- O=C(O)CCCn1cc(NC(=O)c2cccc(F)c2)cn1 — lower, -5.96%
- CSc1ccccc1C(=O)Nc1cccc(C)n1 — lower, -3.63%
- COc1ccc(C2=NN(CC(=O)NC3CCCCC3C)C(=O)CC2)cc1 (stereo not drawn) — lower, -0.0542%
- Cc1c2c(nc3c(C(=O)NCc4ccccc4)cnn13)CCCC2 — higher, 4.47%
- CSc1ccc(CN2CCN(Cc3ccc(C)cc3)CC2)cc1 — lower, 2.45%
- Cn1c(=O)[nH]c(=O)c2c1nc(NCc1ccccc1)n2CC(O)COc1cccc2ccccc12 (stereo not drawn) — lower, 1.67%
- CCCN1CCC(NC(C)COC)CC1 (stereo not drawn) — lower, -0.0908%
- Cc1cccc(CNC(=O)CCC(=O)N2CCSc3ncccc32)c1 — lower, 1.05%
- O=C(CCn1cccc1)NCCc1ccc(Cl)cc1 — lower, -6.09%
- COc1ccccc1C1(CCC(=O)O)CCC(=O)NC1=O (stereo not drawn) — lower, -0.551%
- Cc1c(C(=O)N2CCOCC2)[nH]c2c1C(=O)CC(c1ccc(Cl)cc1)C2 (stereo not drawn) — higher, 8.4%
- CCCc1nnc2n1C(C)(C)Cc1ccccc1-2 — higher, 3.61%
- COc1ccc(NC2CC(=O)N(c3cccc(OC)c3)C2=O)cc1 (stereo not drawn) — lower, 3.05%
- COc1ccc(NC2=Nc3ccccc3CCC2)cc1 — lower, -1.06%
- C=C1OC(=O)OC1(C)Cc1ccccc1 (stereo not drawn) — lower, -2.19%
- CN(Cc1cnn(-c2ccccc2)c1)S(=O)(=O)c1csc(C(N)=O)c1 — lower, -8.67%
- Cc1ccccc1S(=O)(=O)Cc1ccc(C(=O)NCc2cccnc2)o1 — lower, 2.14%
- COc1ccc(NC(=O)C2CCCO2)c(OC)c1 (stereo not drawn) — lower, -5.13%
- CC(=O)OC(C#CBr)c1ccccc1 (stereo not drawn) — lower, -5.5%
- Cc1ccc(S(=O)(=O)Nc2cccc(NS(=O)(=O)c3ccc(C)cc3)n2)cc1 — lower, 0.632%
- CC(C)C(Nc1c2ccccc2nc2ccccc12)C(=O)O (stereo not drawn) — lower, 1.74%
- CCCCC1=NN(C(=O)c2ccccc2OC)C(O)(C(F)(F)F)C1 (stereo not drawn) — lower, 0.673%
- COC(=O)c1ccc(Cn2nc(C)c(Cl)c2C)cc1 — lower, -1.33%
- N#Cc1ccc(-c2cc(C(=O)O)c3c(ccc4ccccc43)n2)cc1 — lower, 3.25%
- O=C(OC1C(C2COC3(CCCCC3)O2)OC2OC3(CCCCC3)OC21)c1ccccc1 (stereo not drawn) — lower, 1.81%
- NC(=O)Cn1c(=O)n(Cc2ccc3c(c2)OCO3)c(=O)c2cccnc21 — lower, -1.66%
- COc1cc(/C=C2\SC(N3CCN(CCO)CC3)=NC2=O)ccc1OCc1ccccc1 — higher, 9.86%
- COc1ccc(-c2cc(C)no2)cc1S(=O)(=O)NCc1cccc(C)c1 — lower, 3.24%
- CC1CCCCC1NC(=O)c1cnn2c(C(F)(F)F)cc(-c3ccccc3)nc12 (stereo not drawn) — lower, 2.9%
- OC1(c2ccccc2)c2ccccc2-c2ncccc21 (stereo not drawn) — lower, -4.67%
- Cc1ccc(-n2c(S)nnc2-c2ccc(Cl)cc2)cc1 — lower, 3.01%
- COc1cc(/C=C/c2ccc3cccc(OC)c3n2)cc2c1OCO2 — lower, 2.49%
- O=C(COc1ccc(Cl)cc1Cl)N1CCCCCC1 — higher, 4.57%
- O=C(O)c1ccccc1N1C(=O)c2ccc([N+](=O)[O-])cc2C1=O — lower, -10.8%
- CCOC(=O)C1=C(c2ccccc2)OC(N)=C(C#N)C1c1ccc(OC)c(CSc2ccccn2)c1 (stereo not drawn) — higher, 7.04%
- Cc1ccc(NC(=O)Nc2ccccc2C#N)cc1NC(=O)Nc1ccccc1C#N — lower, -3.66%
- CC(=O)N/C(=C\c1ccccc1)C(=O)NC(C)c1ccccc1 (stereo not drawn) — lower, -0.744%
- CN1CCN(c2nc(-c3ccc(C(=O)NC4(C(=O)N[C@@H](CCc5ccccc5)C(O)c5nc6ccccc6o5)CCCCC4)cc3)cs2)CC1 (stereo partly drawn) — lower, -1.5%
- O=C(CSc1nnc2sc3ccccc3n12)Nc1nc2c(s1)CCCC2 — lower, -1.11%
- COc1ccccc1-n1c(O)cc(=O)nc1SC — higher, 3.48%
- COc1ccc(CNC(=O)c2csc3ccccc23)cc1 — lower, 2.05%
- CCCOc1nc2c(Cl)cccc2s1 — lower, 2.65%
- Cc1cc(C)nc(NS(=O)(=O)c2ccc(NC(=O)c3cccs3)cc2)n1 — lower, -0.000375%
- Cc1ccc(C2C(C#N)=C(N)Oc3c2c(=O)n(C)c(=O)n3C)cc1 (stereo not drawn) — lower, 0.317%
- Cc1cccc(-c2cc(C(=O)NCCN3CCOCC3)c3ccccc3n2)c1 — lower, -1.1%
- Cc1oc(-c2cccc(Cl)c2)nc1CS(=O)(=O)CC(=O)NCCN1CCOCC1 — lower, -2.92%
- COc1ccccc1CNC(=O)CN1C(=O)C2C3C=CC(C3)C2C1=O (stereo not drawn) — higher, 5.11%
- CC1NCCc2c1[nH]c1ccccc21 (stereo not drawn) — higher, 3.47%
- C=C(C)Cn1c(Cc2ccccc2)nc2ccccc21 — lower, -7.83%
